# Experimental data as given in the supplement of paper PMC4604168 (melanoma cell lines).
# The other results are listed elsewhere or left out. Repeats are few or missing, and single values can be far off.
# Columns and labels:
# Assay in all cases: cell count relative to DMSO control; melanoma cells; higher = more viable cells
# Settings in all cases: library dose: low library concentration; 72 h
# WM115 = test system: WM115
# WM1716 = test system: WM1716
# WM1745 = test system: WM1745
# WM3526 = test system: WM3526
# WM3619 = test system: WM3619
# WM451Lu = test system: WM451Lu
# 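Note: cell number obtained by counting DAPI-stained nuclei in high-throughput microscope images with image analysis software, screen run in 1,536-well plates.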
SMILES,cell count (WM115),cell count (WM1716),cell count (WM1745),cell count (WM3526),cell count (WM3619),cell count (WM451Lu)
"C=C(c1ccc(C(=O)O)cc1)c1cc2c(cc1C)C(C)(C)CCC2(C)C [Bexarotene] + CO[C@@H]1[C@H](N(C)C(=O)c2ccccc2)C[C@H]2O[C@]1(C)n1c3ccccc3c3c4c(c5c6ccccc6n2c5c31)C(=O)NC4 [Midostaurin] (first compound 2 µM, partner dose 0.08 µM)",85.1%,60.5%,87.4%,46.9%,84.1%,93%
"NC1(c2ccc(-c3nc4ccn5c(=O)[nH]nc5c4cc3-c3ccccc3)cc2)CCC1 + CCc1ccc(CCOc2ccc(CC3SC(=O)NC3=O)cc2)nc1 [pioglitazone] (first compound 0.4 µM, partner dose 2 µM)",68.2%,93.6%,96.3%,56.4%,103%,94.2%
"CN(c1ncccc1CNc1nc(Nc2ccc3c(c2)CC(=O)N3)ncc1C(F)(F)F)S(C)(=O)=O + C[C@]1(c2nc3c(C(N)=O)cccc3[nH]2)CCCN1 [Veliparib] (first compound 0.08 µM, partner dose 1.4 µM)",80.5%,60.9%,83.4%,95.8%,102%,74.1%
"CN(c1ncccc1CNc1nc(Nc2ccc3c(c2)CC(=O)N3)ncc1C(F)(F)F)S(C)(=O)=O + N#Cc1c(O)c2c(-c3ccc(-c4ccccc4O)cc3)csc2[nH]c1=O [A769662] (first compound 0.08 µM, partner dose 2 µM)",84.9%,108%,81.3%,94.3%,90.9%,90.3%
"CS(=O)(=O)c1ccc(C(=O)Nc2ccc(Cl)c(-c3ccccn3)c2)c(Cl)c1 [vismodegib] + O=C(O)c1ccc(-c2c[nH]c3ncc(-c4ccccc4)cc23)cc1C1CCCC1 [GSK650394] (first compound 1 µM, partner dose 0.16 µM)",106%,107%,96.3%,99%,117%,96.5%
"CS(=O)(=O)c1ccc(C(=O)Nc2ccc(Cl)c(-c3ccccn3)c2)c(Cl)c1 [vismodegib] + NC1(c2ccc(-c3nc4ccn5c(=O)[nH]nc5c4cc3-c3ccccc3)cc2)CCC1 [MK2206] (first compound 1 µM, partner dose 0.4 µM)",76%,91.5%,110%,69.7%,82.2%,107%
"NC1(c2ccc(-c3nc4ccn5c(=O)[nH]nc5c4cc3-c3ccccc3)cc2)CCC1 + C=C(c1ccc(C(=O)O)cc1)c1cc2c(cc1C)C(C)(C)CCC2(C)C [Bexarotene] (first compound 0.4 µM, partner dose 2 µM)",76.4%,74.4%,91.9%,66.3%,98.6%,76.5%
"CS(=O)(=O)c1ccc(C(=O)Nc2ccc(Cl)c(-c3ccccn3)c2)c(Cl)c1 [vismodegib] + CCN(CC)CCCCNc1ncc2cc(-c3cc(OC)cc(OC)c3)c(NC(=O)NC(C)(C)C)nc2n1 [PD173074] (first compound 1 µM, partner dose 0.1 µM)",108%,118%,105%,109%,111%,80.6%
"NC1(c2ccc(-c3nc4ccn5c(=O)[nH]nc5c4cc3-c3ccccc3)cc2)CCC1 + O=C1NC(=O)/C(=C/c2ccc(-c3ccc(F)cc3O)o2)S1 [AS252424] (first compound 0.4 µM, partner dose 1 µM)",66.1%,89.6%,79.5%,61%,100%,91.2%
"NC1(c2ccc(-c3nc4ccn5c(=O)[nH]nc5c4cc3-c3ccccc3)cc2)CCC1 + COc1cc2ncnc(Nc3ccc(Oc4ccccc4)cc3)c2cc1OC [SrcI1] (first compound 0.4 µM, partner dose 2 µM)",74.8%,111%,79.3%,57.1%,105%,115%
"CCCS(=O)(=O)Nc1ccc(F)c(C(=O)c2c[nH]c3ncc(Cl)cc23)c1F + CC(C)CCN1c2nc(Nc3cc(F)c(O)c(F)c3)ncc2N(C)C(=O)C1C [BID1870] (first compound 0.08 µM, partner dose 0.2 µM)",96.6%,100%,100%,76%,107%,122%
"CN(c1ncccc1CNc1nc(Nc2ccc3c(c2)CC(=O)N3)ncc1C(F)(F)F)S(C)(=O)=O + COc1ccc2c(c1)CCC1C2CCC2(C)C(NCCCCCCN3C(=O)C=CC3=O)CCC12 [U73122] (first compound 0.08 µM, partner dose 0.4 µM)",90.7%,78.5%,67.1%,70.2%,108%,93.5%
"CS(=O)(=O)c1ccc(C(=O)Nc2ccc(Cl)c(-c3ccccn3)c2)c(Cl)c1 [vismodegib] + CCc1ccc(CCOc2ccc(CC3SC(=O)NC3=O)cc2)nc1 [pioglitazone] (first compound 1 µM, partner dose 2 µM)",113%,105%,94.1%,86.1%,98.8%,109%
"NC1(c2ccc(-c3nc4ccn5c(=O)[nH]nc5c4cc3-c3ccccc3)cc2)CCC1 + O=c1cc(-c2cccc3c2Sc2ccccc2S3)oc(N2CCOCC2)c1 [KU55933] (first compound 0.4 µM, partner dose 1 µM)",76.4%,95.2%,91.1%,65.6%,131%,103%
"CS(=O)(=O)c1ccc(C(=O)Nc2ccc(Cl)c(-c3ccccn3)c2)c(Cl)c1 [vismodegib] + O=C(O)C(=O)Nc1sc2c(c1C(=O)O)CCNC2 [TCS401] (first compound 1 µM, partner dose 1.66667 µM)",118%,95.5%,88.9%,90%,103%,101%
"CS(=O)(=O)c1ccc(C(=O)Nc2ccc(Cl)c(-c3ccccn3)c2)c(Cl)c1 [vismodegib] + O=C(Nc1cccc(Cl)c1)Nc1ncc(CCNc2ncnc3ccsc23)s1 [SNS314] (first compound 1 µM, partner dose 0.0008 µM)",80%,118%,108%,93.1%,130%,66.8%
"CS(=O)(=O)c1ccc(C(=O)Nc2ccc(Cl)c(-c3ccccn3)c2)c(Cl)c1 [vismodegib] + Cn1c(=O)n(-c2ccc(C(C)(C)C#N)cc2)c2c3cc(-c4cnc5ccccc5c4)ccc3ncc21 [NVP-BEZ235] (first compound 1 µM, partner dose 0.004 µM)",91.5%,101%,102%,106%,90.2%,98.7%
"CN(c1ncccc1CNc1nc(Nc2ccc3c(c2)CC(=O)N3)ncc1C(F)(F)F)S(C)(=O)=O + Nc1ccn([C@@H]2O[C@H](CO)[C@@H](O)C2(F)F)c(=O)n1 [gemcitabine] (first compound 0.08 µM, partner dose 0.0004 µM)",77.1%,76.5%,69.1%,78.2%,98.8%,73.1%
"CCCS(=O)(=O)Nc1ccc(F)c(C(=O)c2c[nH]c3ncc(Cl)cc23)c1F + Cn1cncc1[C@@](N)(c1ccc(Cl)cc1)c1ccc2c(c1)c(-c1cccc(Cl)c1)cc(=O)n2C [tipifarnib] (first compound 0.08 µM, partner dose 0.01 µM)",87.7%,81.6%,88.1%,67.2%,104%,74.5%
"CS(=O)(=O)c1ccc(C(=O)Nc2ccc(Cl)c(-c3ccccn3)c2)c(Cl)c1 [vismodegib] + CCCS(=O)(=O)Nc1ccc(F)c(C(=O)c2c[nH]c3ncc(Cl)cc23)c1F [PLX4720] (first compound 1 µM, partner dose 0.08 µM)",119%,125%,95.8%,81.3%,98.8%,109%
"CS(=O)(=O)c1ccc(C(=O)Nc2ccc(Cl)c(-c3ccccn3)c2)c(Cl)c1 [vismodegib] + CN1CCN(c2ccc3nc(-c4c(N)c5c(F)cccc5[nH]c4=O)[nH]c3c2)CC1 [Dovitinib] (first compound 1 µM, partner dose 0.1 µM)",110%,106%,114%,108%,93.4%,89.8%
"CCCS(=O)(=O)Nc1ccc(F)c(C(=O)c2c[nH]c3ncc(Cl)cc23)c1F + COCC[n+]1c2c(n(Cc3cnccn3)c1C)C(=O)c1ccccc1C2=O [YM155] (first compound 0.08 µM, partner dose 0.0004 µM)",104%,121%,78.2%,65.5%,76.3%,73.3%
"C=C(c1ccc(C(=O)O)cc1)c1cc2c(cc1C)C(C)(C)CCC2(C)C [Bexarotene] + CN(NC(=O)CC(=O)NN(C)C(=S)c1ccccc1)C(=S)c1ccccc1 [STA4783] (first compound 2 µM, partner dose 0.006 µM)",86.3%,58.9%,29.9%,82.5%,20.1%,93.9%
"NC1(c2ccc(-c3nc4ccn5c(=O)[nH]nc5c4cc3-c3ccccc3)cc2)CCC1 + Cc1cc(N2CCOCC2)cc2[nH]c(-c3c(NC[C@@H](O)c4cccc(Cl)c4)cc[nH]c3=O)nc12 [BMS536924] (first compound 0.4 µM, partner dose 0.2 µM)",74%,91.8%,77.7%,65.1%,98.6%,84.3%
"C=C(c1ccc(C(=O)O)cc1)c1cc2c(cc1C)C(C)(C)CCC2(C)C [Bexarotene] + Cn1cc(/C=C2\C(=O)Nc3cccnc32)c2ccccc21 [GW441756] (first compound 2 µM, partner dose 0.4 µM)",102%,83.8%,103%,82%,101%,104%
